Several values for one entry are separate records, joined by “and”; a condition that tells them apart may be missing. Equal values may be shown once. Some of the results follow. Further columns of the screen follow, without active or inactive calls.
Legend:
Test in all cases: Primary Screen for Target Class Profiling of Small Molecule Inhibitors of Methyltransferases
[1] = target: Glycine N-methyltransferase (Homo sapiens) (UniProt Q14749); settings: purified enzyme, MTase-Glo SAH luminescence; measured here: GNMT inhibition; at 40 µM; stronger effect = lower value
Outline: (§1)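 Each enzyme was reacted with SAM and its substrate, with compounds tested once at 40 uM; SAH formed was read by MTase-Glo luminescence.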

[2] = target: Guanidinoacetate N-methyltransferase (Homo sapiens) (UniProt Q14353); settings: purified enzyme, MTase-Glo SAH luminescence; measured here: GAMT inhibition; at 40 µM; stronger effect = lower value
Outline: as §1

[3] = target: Histamine N-methyltransferase (Homo sapiens) (UniProt P50135); settings: purified enzyme, MTase-Glo SAH luminescence; measured here: HNMT inhibition; at 40 µM; stronger effect = lower value
Outline: as §1

[4] = target: Nicotinamide N-methyltransferase (Homo sapiens) (UniProt P40261); settings: purified enzyme, MTase-Glo SAH luminescence; measured here: NNMT inhibition; at 40 µM; stronger effect = lower value
Outline: as §1

[5] = target: Phenylethanolamine N-methyltransferase (Homo sapiens) (UniProt P11086); settings: purified enzyme, MTase-Glo SAH luminescence; measured here: PNMT inhibition; at 40 µM; stronger effect = lower value
Outline: as §1
% is set by controls: 0 for no effect and ±100 for the full control effect.

| Compound | activity change, negative = inhibition [1] | activity change, negative = inhibition [2] | activity change, negative = inhibition [3] | activity change, negative = inhibition [4] | activity change, negative = inhibition [5] |
| --- | --- | --- | --- | --- | --- |
| COCCN1CCCC1c1nc(C2CN(C(=O)c3ncccc3C)C2)no1 (stereo not given) | -6.32% | -10.1% | -5.23% | -11.2% | -6.28% |
| CCCN1C(=O)c2cc3occc3n2CC1(C)C(=O)NC1CCCCCC1 (stereo not given) | -4.74% | 3.6% | 0.574% | 4.49% | -1.1% |
| CN1C(=O)Cc2cc(S(=O)(=O)NCCN3CCN(c4ccccc4F)CC3)ccc21 | 4.49% | 0.222% | -1.86% | 6.03% | 1.01% |
| O=C(CC1CCN(C(=O)C2CCCCC2)C1)NCc1ccccc1 (stereo not given) | -3.6% | -4.16% | -1.61% | -12.6% | -6.61% |
| CC(C)Cn1c(=O)c2cc(F)ccc2n2c(SCC(=O)NCc3ccccc3Cl)nnc12 | -2% | 4.21% | 3.94% | -10.5% | -2.51% |
| COc1ccccc1CNC(=O)C1(C)Cn2c(cc3ccccc32)C(=O)N1Cc1ccc(C)cc1 (stereo not given) | -2.35% | 3.88% | 1.24% | -12.6% | -3.86% |
| COc1cccc(CNC(=O)Nc2cccc(-c3ccc(N4CCCCC4)nn3)c2)c1 | -19.3% | -19.8% | -18.8% | -27% | -32.2% |
| CCc1cc2c(cc3n2CC(C)(C(=O)NC2CCC(C)CC2)N(CCC(C)C)C3=O)s1 (stereo not given) | -6.01% | 3.98% | -1.11% | -0.856% | -1.84% |
| COc1cc(/C=C/C(=O)NCCn2c(C(F)(F)F)cc3ccccc32)cc(OC)c1OC | 3.05% | 3.91% | -2.05% | -9.47% | 3.63% |
| COc1c(CCC(=O)O)cccc1O[C@@H]1O[C@H](CO)[C@@H](O)[C@H](O)[C@H]1O | 5.51% | 2.56% | 6.78% | -9.06% | 6.13% |
| O=C(CCCc1nnc2n3nc(-c4ccccc4)nc3c3ccccc3n12)N1CCC(N2CCCCC2)CC1 | -4.92% | -0.6% | -60.5% | 2.98% | -3.57% |
| OCC(O)C(c1c[nH]c2ccccc12)c1c[nH]c2ccccc12 (stereo not given) | -9.44% | -6.4% | 2.35% | -16.3% | -15.4% |
| CC1(C(=O)NC2CCCCCCC2)Cn2c(cc3occc32)C(=O)N1C1CCCC1 (stereo not given) | -1.95% | 3.57% | -0.881% | -4.05% | -3.77% |
| O=C(Cn1ccc2cc(S(=O)(=O)N3CCCCC3)ccc21)NCCc1ccccc1Cl | 2.18% | 4.72% | -6.39% | -3.17% | -3.39% |
| COc1cccc(C(=O)N2CC3(Cc4ccccc4N(C(C)=O)C3)C2)c1 | -5% | -4.38% | -1.49% | -11.7% | 7.39% |
| CN(C)C(=O)Oc1cccc([N+](C)(C)C)c1 | 5.74% | 13.1% | 11.7% | -4.18% | 3.8% |
| CC(NC(=O)OCc1ccccc1)c1nc2cccnc2n1C1CCCCC1 (stereo not given) | -7.28% | -5.45% | -2.25% | -15.4% | -6.36% |
| Cc1ccc2c(c1)C(N1CCN(C)CC1)=Nc1cccnc1N2 | -13.3% | 11.5% | 7.61% | -7.95% | -1.49% |
| O=C(Cn1c2c(c(=O)n1Cc1ccccc1)CCN(Cc1ccccc1)C2)NCc1cccc(Cl)c1 | -7.84% | -8.02% | -5.38% | -17.7% | -9.62% |
| CCCN1C(=O)c2c(C(=O)NCc3cccc(Br)c3)ncn2CC1(C)C(=O)NC1CCCC1 (stereo not given) | -3.23% | 0% | 2.68% | -5.57% | 4.82% |
| O=c1[nH]cnc2[nH]ncc12 | 2.18% | 9.06% | 8.82% | -4.69% | -1.98% |

| Compound | activity change, negative = inhibition [1] | activity change, negative = inhibition [2] | activity change, negative = inhibition [3] | activity change, negative = inhibition [4] | activity change, negative = inhibition [5] |
| --- | --- | --- | --- | --- | --- |
| C=C[C@@]1(C)CCC2C(=CCC3[C@]2(C)CCC[C@@]3(C)C(=O)O)C1 (stereo not given in full) | -0.83% | -17.5% | 3.74% | -37.6% | -10.4% |
| COc1ccc(CNc2nc3c(-c4ccccc4)nnn3c3ccccc23)cc1 | -3.6% | 3.39% | 0.044% | -5.89% | -3.87% |
| CC1CC(O)/C=C/C(O)C(O)CC(=O)Cc2c(Cl)c(O)cc(O)c2C(=O)O1 (stereo not given) | 4.03% | 3% | 10.4% | -8.03% | -1.53% |
| CN1CCN(C2CCN(C(=O)Nc3cc(Oc4ccc(NC(=O)C5(C(=O)Nc6ccc(F)cc6)CC5)c(F)c4)ccn3)CC2)CC1 | 3.2% | 14% | -4.11% | 1.96% | 4.74% |
| CC1(C(=O)NC2CCCCCCC2)Cn2c(cc3occc32)C(=O)N1Cc1ccccc1Cl (stereo not given) | -2.43% | 3.39% | -1.05% | -1.45% | 0.027% |
| COc1cccc(C(=O)NCC2CCCN(Cc3ccccn3)C2)c1OC (stereo not given) | -1.96% | -0.742% | -0.674% | -2.48% | -7.64% |
| CC(C)Cn1c(=O)c2ccccc2n2c(SCC(=O)Nc3cc(F)ccc3F)nnc12 | 3.04% | 5.42% | 11.4% | 3.25% | 4.5% |
| CCOCCOC(=O)C(C)Oc1ccc2c(=O)c(-c3ccc(OC)c(OC)c3)c(C(F)(F)F)oc2c1 (stereo not given) | -13.5% | 1.85% | 2.85% | 0.694% | -3.18% |
| COc1ccc(Cl)cc1NC(=O)CSc1nnc2n(CC(C)C)c(=O)c3ccccc3n12 | -4.67% | -0.669% | 2.72% | -6.82% | -4.25% |
| CCc1cc2c(cc3n2CC(C)(C(=O)NC2CCCCCC2)N(Cc2ccc(Cl)cc2)C3=O)s1 (stereo not given) | 4.52% | 1.38% | 8.18% | 6.5% | 4.64% |
| O=C1CCC2(CNC(=O)c3cccnc3)CCCC=C2N1 (stereo not given) | -5.02% | -2.38% | -0.714% | 20.2% | 4.75% |
| CCCn1c(=O)c2ccc(C(=O)NC3CCCCC3)cc2n2c(=O)n(CC(=O)Nc3ccccc3)nc12 | 7.49% | 1.4% | 10.7% | 2.8% | 6.27% |
| C=Cc1ccc(Cn2nc3n(Cc4ccccc4)c(=O)c4ccc(C(=O)NC5CCCC5)cc4n3c2=O)cc1 | -2.16% | -0.212% | 1.72% | -2.45% | -5.08% |
| Cc1cccc(C(=O)NCN2CCN(c3ccccc3C#N)CC2)c1 | 5.91% | 12.6% | 12.8% | -3.49% | 0.928% |
| COc1ccccc1CNC(=O)C1(C)Cn2c(cc3ccccc32)C(=O)N1Cc1ccccc1F (stereo not given) | 5.82% | 0% | 9.48% | 12% | 3.04% |
| CCOc1ccccc1NC(=O)c1ncn2c1C(=O)N(C1CC1)C(C)(C(=O)NCc1ccc(OC)cc1)C2 (stereo not given) | -2.79% | 0% | 1.12% | 0.011% | 2.15% |
| NC1(C(=O)O)CCc2cc(C(=O)O)ccc21 (stereo not given) | -21% | 10.3% | 2.73% | -1.51% | 0.406% |
| NC(CO)C(=O)NNCc1ccc(O)c(O)c1O (stereo not given) | -31.4% | -2.19% | -3.67% | -13.6% | -0.862% |
| COc1ccccc1CNc1nc2c(-c3cccc(C)c3)nnn2c2ccccc12 | -3.21% | 0.192% | 2.97% | -2.18% | -1.73% |
| Cc1ccccc1C(=O)N1CCCN(c2ccc3nnc(-c4ccccc4)n3n2)CC1 | -10% | -6.66% | -13% | -16.8% | -0.895% |
| c1ccc(-c2nc(C3CCOCC3)no2)c(OC2CCN(C3CCCC3)C2)c1 (stereo not given) | -7.03% | -1.72% | -20.1% | -38% | -3.91% |

| Compound | activity change, negative = inhibition [1] | activity change, negative = inhibition [2] | activity change, negative = inhibition [3] | activity change, negative = inhibition [4] | activity change, negative = inhibition [5] |
| --- | --- | --- | --- | --- | --- |
| Oc1ccc(CNc2ccccc2F)c2cccnc12 | -67.6% and 2.65% | 0.475% | -14.9% and 0.816% | -5.34% and -20.3% | -111% and -8.26% |
| O=C(NCc1ccc(F)cc1)C(=O)c1c[nH]c2ccccc12 | -2.81% | -9.05% | -4.13% | -17.8% | -9.67% |
| CC(C)CC(=O)N1CCN(c2nnc3ccc(C(F)(F)F)cn23)CC1 | -3.11% | 0.097% | 0.91% | -4.41% | -14.2% |
| COc1ccc(Oc2c(Cl)cnn(-c3cc(C)cc(C)c3)c2=O)cc1 | -8.28% | 1.68% | 1.56% | -23.2% | -14.1% |
| CC1(C)COC(=O)[C@@H]1O[C@@H]1O[C@H](CO)[C@@H](O)[C@H](O)[C@H]1O | 1.87% | -2.05% | 7.83% | -17.7% | 2.4% |
| CCC(C(=O)NCc1cccc(OC)c1)n1ccc2cc(S(=O)(=O)N3CCCCC3)ccc21 (stereo not given) | 8.27% | 1.21% | 7.06% | 5.16% | 3.12% |
| COc1ccc(OC)c(S(=O)(=O)N2CCC(n3c(C)cnc3-c3ccncc3)CC2)c1 | 2.22% | 0% | 8.19% | -1.23% | 2.61% |
| CN(CCN1C(=O)c2cc3sccc3n2CC1(C)C(=O)NC1CCCCCC1)C1CCCCC1 (stereo not given) | 2.22% | 0.113% | 3.99% | 9.44% | 1.54% |
| COc1cc(CN2CCC(CO)(CN3CCCC3)CC2)ccc1F | -0.647% | -2.35% | -16.1% | -1.71% | -5.78% |
| COc1ccc(-c2n[nH]n3c2nc(=O)c2ccc(C(=O)NCc4ccc(F)cc4)cc23)cc1 | -2.16% | 3.56% | 4.3% | 1.69% | 0.38% |
| Nc1nc(Nc2ccc3c(c2)CCC(N2CCCC2)CC3)nn1-c1cc2c(nn1)-c1ccccc1CCC2 (stereo not given) | -4.87% |  | -59.3% |  |  |
| CCCn1c(=O)c2cc(Cl)ccc2n2c(SCc3ccc(C)cc3)nnc12 | -6.97% | 0% | 2.65% | -12.3% | 1.53% |
| CC(C)c1cccc(N2C(=O)c3ccccc3CC2(C)C(=O)NCc2ccccc2)c1 (stereo not given) | 4.49% | 0% | 6.13% | -1.71% | 2.85% |
| CC(C)=CCC[C@](C)(O[C@@H]1O[C@H](CO[C@@H]2O[C@H](CO)[C@@H](O)[C@H](O)[C@H]2O)[C@@H](O)[C@H](O)[C@H]1O)[C@H]1CC[C@]2(C)[C@@H]1[C@H](O)C[C@@H]1[C@@]3(C)CC[C@H](O[C@@H]4O[C@H](CO)[C@@H](O)[C@H](O)[C@H]4O[C@@H]4O[C@H](CO)[C@@H](O)[C@H](O)[C@H]4O)C(C)(C)[C@@H]3CC[C@]12C |  | 12.4% |  | 1.88% | -6.3% |
| CC/C=C\CC1C(=O)C=CC1(CCCCCCCC(=O)O)OC(C)=O (stereo not given) | -2.25% | 6.49% | 5.75% | -12.4% | 4.57% |
| C=CCc1ccccc1OCCN(C)Cc1ccccc1C(=O)O | -1.34% | -1.76% | 3.16% | -4.54% | -0.669% |
| CCOc1ccc(CCNS(=O)(=O)c2cn(C)cn2)cc1OCC | -1.9% | 0% | 4.18% | -1.65% | 1.49% |
| O=c1[nH]cnc2c1ncn2[C@H]1CC[C@@H](CO)O1 | 1.26% | 2.28% | 10.1% | -13.3% | 3.73% |
| CNC(=O)c1cc2cc(-c3c(C)noc3C)nc(-c3cccc(OC)c3OC)c2o1 | -8.79% | -9.19% | -6.85% | -21% | -10.3% |
